# Assay results: ChEMBL document CHEMBL1201862, “PubChem BioAssay data set” (2004)
# Test system: NCI-H322M
# Assay: NCI-60 cell line screen, 48 h
row,SMILES,GI50
1,O=C(CSc1nc2ccccc2c2ccccc12)c1ccccc1,inactive: > 100 µM
2,O=[N+]([O-])c1ccc(-c2ccc([C@H]3CC(c4cc(F)c(Cl)cc4Cl)=NN3)o2)cc1,active: 0.94 µM
3,COc1cc2nc(-c3cccs3)nc(N3CCN(c4ccccc4)CC3)c2cc1OC,inactive: > 100 µM
4,CC(=O)OCCCCn1cnc2c(Cl)nc(Nc3ccccc3)nc21,inactive: > 100 µM
5,Cc1ccc(CN2CCN(Cc3ccc(C)o3)C(C)C2)o1 (stereo not given),inactive: > 100 µM
6,CN(C)C(=S)/N=c1\ssc(=S)n1C,inactive: > 100 µM
7,C=CCCC(On1c(-c2ccc(Cl)cc2)csc1=S)c1ccccc1 (stereo not given),inactive: > 100 µM
8,COc1ccc(N2C(Cl)C(=O)C2c2c[nH]c3ccccc23)cc1 (stereo not given),inactive: > 100 µM
9,CC1CC/C(=C\c2ccc(Cl)cc2)C(=O)/C1=C\c1ccc(Cl)cc1 (stereo not given),inactive: 48.1 µM
10,OC(c1ccc(-c2ccccc2)cc1)(c1ccc(-c2ccccc2)cc1)c1ccc(-c2ccccc2)cc1,inactive: > 100 µM
11,O=C(CCC(=O)Nc1ccccc1C(F)(F)F)N/N=C1\C(=N\NC(=O)CCC(=O)Nc2ccccc2C(F)(F)F)C(c2ccc3c(c2)OCO3)Oc2ccccc21 (stereo not given),inactive: > 49 µM
12,CCOC(=O)c1ccc(C(=O)C(C(C)=O)C(=O)OC(C)(C)C)[nH]1 (stereo not given),inactive: > 100 µM
13,Cc1ccc(C)c(N2C(=O)C(=O)C(c3nc4ccccc4o3)/C(=N\NC(=O)c3ccccc3O)C2=O)c1 (stereo not given),inactive: 40 µM
14,NN,inactive: 671 µM
15,Cc1cc(NC(=S)SCc2ccc(F)cc2)c([N+](=O)[O-])cc1C,inactive: 39.4 µM
16,C/C(=N/NS(=O)(=O)c1c(C)cc(C)cc1C)c1cccc[n+]1[O-],inactive: > 100 µM
17,COc1ccc(NC(C)=O)cc1N1C(=O)/C(=C\c2ccccc2)SC1c1cc(OC)c(OC)c(OC)c1 (stereo not given),inactive: 25.9 µM
18,C/C(Cc1ccccc1)=N\NC(N)=S,inactive: > 100 µM

row,SMILES,GI50
1,CC(=O)OC1COC(n2c(N)c(C#N)c(-c3ccccc3)c(C#N)c2=S)C(OC(C)=O)C1OC(C)=O (stereo not given),inactive: 73.5 µM and inactive: 52.6 µM
2,N#Cc1c(-c2ccccc2)c(C#N)c(=S)n(C2OC(CO)C(O)C(O)C2O)c1O (stereo not given),inactive: > 100 µM
3,Cc1[nH]nc(-c2ccon2)c1N=O,inactive: 80 µM
4,C[C@]12CCC(=O)C(O)=C1CCC2=O,inactive: > 100 µM
5,Cc1nc(C)c(C(=O)NNC(=O)c2ccccc2)cc1C(=O)NNC(=O)c1ccccc1,inactive: > 100 µM
6,COC1/C=C/C(C)C(OC)CC(O)/C=C/C(C)C(C(C)C(OC)C(C)CCC(=O)C(C)C(C/C=C/N(C)C=O)OC)OC(=O)/C=C/C=C(\C)CC(OC)C(OC)C2=CC(=O)O[C@@H](C(C)C(OC)C1)[C@H]2O (stereo not given in full),active: 0.0649 µM
7,CSc1c(C#N)c2n(c3ccccc13)c1ccccc1[n+]2C,inactive: 34 µM
8,CCOC(=O)CC(=O)CSc1c(-c2ccccc2)c(=O)n(-c2ccccc2)c(=S)n1-c1ccccc1,inactive: > 100 µM
9,O=C(Nc1c(Cl)cc([N+](=O)[O-])cc1Cl)/C(=N\Nc1cccc(Cl)c1)c1c(O)c2ccccc2oc1=O,inactive: > 100 µM
10,COc1cc(/C=C/C(=N\NC(N)=S)c2sc(NNC(C)=O)nc2C)ccc1O,inactive: > 100 µM
11,CN(C)c1ccc(/N=C2/C=CC(=C(C#N)C#N)c3ccccc32)cc1,active: 0.434 µM
12,CS(=O)(=O)OCCN(CCOS(C)(=O)=O)c1ccc(/C=N/c2ccc(-c3csc(COc4ccccc4)n3)cc2)cc1,inactive: 10.7 µM
13,O=S(=O)(O)c1cc(S(=O)(=O)O)c2c(/N=N/c3cccc4ccccc34)c(O)ccc2c1,inactive: > 100 µM
14,CN=S(=O)(C[C@]1(O)CC2OC1C1OC(C)(C)OC21)c1ccccc1 (stereo not given in full),inactive: > 100 µM
15,Cc1ncc([N+](=O)[O-])n1CC[N+](C)([O-])CCCCn1ccnc1[N+](=O)[O-] (stereo not given),inactive: > 100 µM
16,CC(=O)Nc1ccc2oc(=O)c3ccccc3c2c1,inactive: > 100 µM
17,COc1ccc2[nH]c(Cl)c(/C=C3/C(=O)Nc4cc(C)c(OC)cc43)c2c1,inactive: 11.6 µM

# “And” between values parts separate entries of the source, which are not always exact repeats. Identical values can stand only once.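 Results reflect a 48-hour exposure of cells in 96-well plates to compound at five concentrations. Here, GI50 denotes the concentration required for 50% inhibition of growth.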 The source made the active and inactive calls. Cut-off read from the data, not from the text of the source: active = GI50 up to about 1.1 µM and inactive = higher.
